Some of the results follow. The main result of the screen is listed elsewhere. These columns were measured beside it and carry no call.
Columns and labels:
Assay in all cases: Primary Screen for Target Class Profiling of Small Molecule Inhibitors of Methyltransferases
[1] = biological target: Glycine N-methyltransferase (Homo sapiens) (UniProt Q14749); conditions: purified enzyme, MTase-Glo SAH luminescence; measured here: GNMT inhibition; at 40 µM; stronger effect = lower value
Method in brief: (§1)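 Each enzyme was reacted with SAM and its substrate, with compounds tested once at 40 uM; SAH formed was read by MTase-Glo luminescence.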

[2] = biological target: Guanidinoacetate N-methyltransferase (Homo sapiens) (UniProt Q14353); conditions: purified enzyme, MTase-Glo SAH luminescence; measured here: GAMT inhibition; at 40 µM; stronger effect = lower value
Method in brief: as §1

[3] = biological target: Histamine N-methyltransferase (Homo sapiens) (UniProt P50135); conditions: purified enzyme, MTase-Glo SAH luminescence; measured here: HNMT inhibition; at 40 µM; stronger effect = lower value
Method in brief: as §1

[4] = biological target: Nicotinamide N-methyltransferase (Homo sapiens) (UniProt P40261); conditions: purified enzyme, MTase-Glo SAH luminescence; measured here: NNMT inhibition; at 40 µM; stronger effect = lower value
Method in brief: as §1

[5] = biological target: Phenylethanolamine N-methyltransferase (Homo sapiens) (UniProt P11086); conditions: purified enzyme, MTase-Glo SAH luminescence; measured here: PNMT inhibition; at 40 µM; stronger effect = lower value
Method in brief: as §1
% is scaled to controls: 0 for no effect and ±100 for the full control effect.

| SMILES | activity change, negative = inhibition [1] [%] | activity change, negative = inhibition [2] [%] | activity change, negative = inhibition [3] [%] | activity change, negative = inhibition [4] [%] | activity change, negative = inhibition [5] [%] |
| --- | --- | --- | --- | --- | --- |
| CCCCNC(=O)c1nnn2cc(-c3ccc(Cl)cc3)[nH]c(=O)c12 | -13.8 | 0.817 | -2.77 | -4.16 | 12.2 |
| CC(C)CC(=O)Nc1ccnn1C1CCN(C(=O)c2scc3c2CCCC3)CC1 | 0.286 | 3.18 | 1.67 | -3.64 | 14.7 |
| CCCCNC(=O)c1cc2n(n1)CC(C)(C(=O)NC1CCCC1)N(CCC)C2=O (configuration not stated) | -2.86 | 2.27 | -4.25 | -4.66 | -3.08 |
| CCCn1c(=O)c2cc(Cl)ccc2n2c(SCC(=O)Nc3cccc(F)c3)nnc12 | 3.37 | 0.352 | 11.9 | 6.63 | 9.06 |
| CC(C)(C)CCN1C[C@@H]2C(CNC(=O)c3cc(Cl)cc(Cl)c3)[C@@H]2C1 (some centres not stated) | 6.24 | 14 | -7.27 | -22.6 | 0.869 |
| O=[N+]([O-])c1cn2c(n1)OCC(OCc1ccc(OC(F)(F)F)cc1)C2 (configuration not stated) | 0.001 | – | -1.01 | – | – |
| O=C(c1ccc2cc[nH]c2c1)N1CCCC(Cc2noc(-c3ccccn3)n2)C1 (configuration not stated) | -8.06 | -12.3 | -6.09 | -14.9 | -10.9 |
| CC1CCCCC1NC(=O)C1c2cccn2CC(=O)N1CCc1ccc(Cl)cc1 (configuration not stated) | 0.355 | 1.05 | 4.88 | 2.54 | 1.78 |
| COC(=O)c1cc(CN2CCN(C(=N)N)CC2)cc(C(=O)N2CCN(C(=O)c3ccc(C(=N)N)cc3)CC2)c1 | 5.64 | 5.56 | -44.5 | -3.78 | 6.51 |
| c1ccc(CN2CCNc3cnc(Nc4ccc(N5CCOCC5)cc4)cc3C2)cc1 | -44.1 | -42.3 | -45.5 | -42.1 | -58.1 |
| COC(=O)c1ccc(NC(=O)CN(C)S(=O)(=O)c2ccc3[nH]c4c(c3c2)CCCC4)cc1 | 3.1 | 4.56 | 0.078 | 4.41 | 2.66 |
| CCOc1cc2oc(=O)cc(-c3ccccc3)c2cc1Cl | -6.65 | 5.01 | -0.655 | -4.14 | -8.9 |
| COCCOCC1(CNC(=O)c2cccnc2)C[C@@H](O)[C@@H](O)C1 (some centres not stated) | -2.51 | -3.78 | 0.624 | -9.23 | -11.7 |
| COc1ccc(-c2c(-c3cc(C(=O)O)ccn3)ncn2C)cc1 | 4.16 | 8.2 | 7.19 | -5.51 | 4.75 |
| C[C@@H]1CC[C@]2(C(=O)O)CC[C@]3(C)C(=CCC4[C@@]5(C)C[C@@H](O)[C@H](O)[C@@](C)(CO)C5CC[C@]43C)C2[C@]1(C)O (some centres not stated) | -4.32 | -5.38 | 2.29 | -19.2 | -14.8 |
| COC1=CC(=O)C=C(C)C12Oc1c(Cl)c(OC)cc(OC)c1C2=O (configuration not stated) | 4.98 | 4.37 | 7.48 | -10.3 | 2.2 |
| Cc1cccc(C(=O)N2CC[C@H]3C(=O)NCCCCCCN(Cc4ccncc4)[C@@H]3C2)c1 | -9 | -9.3 | -7.75 | -10 | -7.36 |

Source: PubChem BioAssay AID1745853 (National Center for Advancing Translational Sciences (NCATS), 2022)
